# Source: PubChem BioAssay (Tox21)
# “And” between values parts separate entries of the source, which are not always exact repeats. Equal entries are not always repeated. The shares of active, inactive and inconclusive entries below differ from those in the screen. For some assays here: Where the call is inconclusive, the potency comes from a doubtful curve fit. Where a structure was tested more than once in an assay, its records may differ in their call. The source made the active and inactive calls. Unless noted, calls follow the shape of the full dose curve.
# Columns and labels:
# [1] = qHTS assay to identify small molecule antagonists of the sonic hedgehog signaling (Shh) pathway (AID 1259369); also: nearly all actives have a fitted effect of over 45% in size; also: potency is read from the fitted curve at half-maximal effect; as to activity change, negative = inhibition: % is scaled to controls: 0 for no effect and ±100 for the full control effect
# In short: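 NIH/3T3 stable Gli1-Luc clone, 2,000 cells/well, 4hr settle; cpd + conditioned medium 24hr; Luc reagent 30min RT; luminescence.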
# [2] = target: Estrogen receptor beta (Homo sapiens) (UniProt Q92731); assay: qHTS assay to identify small molecule antagonists of the estrogen receptor beta (ER-beta) signaling pathway (AID 1259378; active = well fitted inhibition curve with a large enough effect in the signal ratio in the repeat runs, not every such curve was filed as active; inconclusive = weak or mixed curves, or effect the other way; inactive = no such curve, though single readings can be large or run the other way; the % refers to the signal ratio; also: potency is read from the fitted curve at half-maximal effect; as to activity, negative = inhibition: % is scaled to controls: 0 for no effect and ±100 for the full control effect); conditions: ER-beta-UAS-bla HEK293T, beta-lactamase FRET ratio, 16 h; activity, negative = inhibition: at 92.4 µM (top of the series) unless noted
# UniProt Q92731, sequence (Q92731 whole entry, looked up): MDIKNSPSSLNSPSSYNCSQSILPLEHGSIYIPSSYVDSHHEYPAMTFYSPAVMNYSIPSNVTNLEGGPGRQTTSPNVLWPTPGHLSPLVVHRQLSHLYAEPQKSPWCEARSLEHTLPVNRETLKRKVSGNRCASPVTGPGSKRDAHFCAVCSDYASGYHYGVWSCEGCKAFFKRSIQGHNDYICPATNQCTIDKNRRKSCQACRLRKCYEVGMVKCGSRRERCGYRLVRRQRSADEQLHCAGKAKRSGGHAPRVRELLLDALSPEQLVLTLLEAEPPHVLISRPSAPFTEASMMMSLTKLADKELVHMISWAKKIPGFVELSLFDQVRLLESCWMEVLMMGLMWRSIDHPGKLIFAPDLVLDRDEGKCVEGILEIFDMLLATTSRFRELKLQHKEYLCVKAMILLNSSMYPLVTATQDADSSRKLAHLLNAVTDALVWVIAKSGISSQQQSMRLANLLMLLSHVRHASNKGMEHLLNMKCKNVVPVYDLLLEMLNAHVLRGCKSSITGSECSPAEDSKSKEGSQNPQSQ
# In short: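 Antagonist mode: compounds added to beta-lactamase reporter HEK293T ER-beta-UAS cells stimulated with E2 (1nM final), 16 hr at 37C. LiveBLAzer B/G FRET substrate, 2 hours room temperature, fluorescence read-out.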
# [3] = target: Progesterone receptor (Homo sapiens) (UniProt P06401); assay: qHTS assay to identify small molecule antagonists of the progesterone receptor (PR) signaling pathway (AID 1346795; active = well fitted inhibition curve with a large enough effect in the signal ratio in the repeat runs, not every such curve was filed as active; inconclusive = weak or mixed curves; the % refers to the signal ratio; also: potency is read from the fitted curve at half-maximal effect; as to activity change, negative = inhibition: % is scaled to controls: 0 for no effect and ±100 for the full control effect); conditions: PR-UAS-bla HEK293T, beta-lactamase FRET ratio, 16 h; activity change, negative = inhibition: at 92.4 µM (top of the series) unless noted
# UniProt P06401, sequence (P06401 whole entry, looked up): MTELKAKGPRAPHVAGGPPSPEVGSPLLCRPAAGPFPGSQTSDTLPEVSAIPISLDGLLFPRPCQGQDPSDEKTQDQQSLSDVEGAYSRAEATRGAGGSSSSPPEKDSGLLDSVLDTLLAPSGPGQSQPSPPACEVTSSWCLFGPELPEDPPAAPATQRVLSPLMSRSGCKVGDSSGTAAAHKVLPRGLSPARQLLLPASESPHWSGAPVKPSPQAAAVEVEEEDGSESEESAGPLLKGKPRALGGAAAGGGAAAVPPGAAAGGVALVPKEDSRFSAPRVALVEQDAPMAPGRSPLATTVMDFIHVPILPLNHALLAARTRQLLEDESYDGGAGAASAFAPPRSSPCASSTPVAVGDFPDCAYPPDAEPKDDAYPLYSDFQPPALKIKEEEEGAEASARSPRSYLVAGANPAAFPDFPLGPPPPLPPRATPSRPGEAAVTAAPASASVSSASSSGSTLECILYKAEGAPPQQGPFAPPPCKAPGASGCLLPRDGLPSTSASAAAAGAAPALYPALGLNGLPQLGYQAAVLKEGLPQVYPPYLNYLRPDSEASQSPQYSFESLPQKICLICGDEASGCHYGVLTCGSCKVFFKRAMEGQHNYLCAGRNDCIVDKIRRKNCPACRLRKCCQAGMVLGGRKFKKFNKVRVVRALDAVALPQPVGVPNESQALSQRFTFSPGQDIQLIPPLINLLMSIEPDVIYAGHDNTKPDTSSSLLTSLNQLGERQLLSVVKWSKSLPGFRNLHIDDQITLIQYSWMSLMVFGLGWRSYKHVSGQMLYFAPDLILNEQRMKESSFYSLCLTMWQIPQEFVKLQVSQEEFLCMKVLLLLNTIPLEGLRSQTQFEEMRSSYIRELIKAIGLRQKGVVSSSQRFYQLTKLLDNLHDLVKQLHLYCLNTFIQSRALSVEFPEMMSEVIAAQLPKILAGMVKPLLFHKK
# In short: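 HEK293T PR-UAS-bla reporter cells in charcoal-stripped serum (2%) received compound after a 6 hr settling period, followed by R5020 agonist at 1 nM final; 16 hr incubation preceded the FRET substrate step and fluorescence measurement.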
# [4] = qHTS assay to identify small molecule agonists of the androgen receptor (AR) signaling pathway in the presence of an antagonist - cell viability counter screen (AID 1259379; active = well fitted curve in the direction sought with a large enough effect in the repeat runs; inconclusive = weak or mixed curves; inactive = no such curve, though single readings can be large; an effect the other way counts as inactive or inconclusive; also: nearly all actives have a fitted effect of over 25% in size; also: potency is read from the fitted curve at half-maximal effect)
# In short: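 MDA-kb2 viability measured by CellTiter-Fluor fluorescence in the same wells as the luciferase signal; nilutamide 3.0uM final; 15-point compound titration; 16 hr at 37C.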
# [5] = qHTS assay to identify small molecule agonists of the estrogen receptor beta (ER-beta) signaling pathway - cell viability counter screen (AID 1259380; active = well fitted curve in the direction sought with a large enough effect in the repeat runs; inconclusive = weak or mixed curves; inactive = no such curve, though single readings can be large; an effect the other way counts as inactive or inconclusive; also: nearly all actives have a fitted effect of over 30% in size; also: potency is read from the fitted curve at half-maximal effect)
# In short: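 Measured: luminescence from CellTiter-Glo after 30 min at room temperature, added to wells already read for the LiveBLAzer FRET reporter (2 hr substrate); ER-beta-UAS-bla HEK293T cells had 16 hr compound treatment at 37C, 5% CO2.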
# [6] = target: Estrogen receptor (Homo sapiens) (UniProt P03372); assay: qHTS assay to identify small molecule agonists of the estrogen receptor alpha (ER-alpha) signaling pathway in the presence of an antagonist (AID 1259383); also: potency is read from the fitted curve at half-maximal effect; nearly all actives have a fitted effect of over 15% in size
# UniProt P03372, sequence (P03372 whole entry, looked up): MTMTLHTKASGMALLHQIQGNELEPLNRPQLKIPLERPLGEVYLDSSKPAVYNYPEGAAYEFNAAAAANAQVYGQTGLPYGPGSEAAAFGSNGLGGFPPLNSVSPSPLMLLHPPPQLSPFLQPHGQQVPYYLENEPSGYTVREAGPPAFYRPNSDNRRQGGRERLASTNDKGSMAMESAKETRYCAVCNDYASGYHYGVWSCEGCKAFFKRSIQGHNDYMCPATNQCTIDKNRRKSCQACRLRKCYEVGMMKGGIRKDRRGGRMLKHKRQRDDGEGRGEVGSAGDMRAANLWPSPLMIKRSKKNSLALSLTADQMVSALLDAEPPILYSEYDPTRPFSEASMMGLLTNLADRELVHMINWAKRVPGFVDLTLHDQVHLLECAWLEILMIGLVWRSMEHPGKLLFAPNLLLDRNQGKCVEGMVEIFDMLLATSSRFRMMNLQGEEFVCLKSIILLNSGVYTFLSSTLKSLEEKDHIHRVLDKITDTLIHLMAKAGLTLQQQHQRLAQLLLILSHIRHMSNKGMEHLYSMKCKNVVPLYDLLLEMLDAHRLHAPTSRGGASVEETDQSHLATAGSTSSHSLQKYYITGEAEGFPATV
# In short: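 Quantitative HTS confirmation: compounds titrated at 15 concentrations onto estrogen-deprived VM7Luc4E2 cells carrying a four-ERE luciferase construct, with ICI-182,780 present at 10.0nM final. Signal is luminescence after 22hr exposure.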
# [7] = qHTS assay to identify small molecule agonists or antagonists of the thyroid stimulating hormone receptor (TSHR) signaling pathway - wild type cell line counter screen (AID 1259384); conditions: HEK293 wild type, cAMP HTRF counter-screen; cAMP activity change: at 92.4 µM (top of the series), stronger effect = higher value unless noted; also: % is scaled to controls: 0 for no effect and ±100 for the full control effect
# In short: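 Counter screen in untransfected Hek293: compounds (15-point titration, triplicate) plus phosphodiesterase inhibitor Ro20-1724 added after 18 h plating; 30 min RT. Intracellular cAMP via competitive d2/cryptate immunoassay, 1 h incubation.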
# [8] = target: Thyrotropin receptor (Homo sapiens) (UniProt P16473); assay: qHTS assay to identify small molecule antagonists of the thyroid stimulating hormone receptor (TSHR) signaling pathway (AID 1259385); conditions: TSHR-HEK293 cAMP HTRF, TSH-stimulated antagonist mode; activity change, negative = inhibition: at 92.4 µM (top of the series) unless noted; also: nearly all actives have a fitted effect of over 20% in size; also: potency is read from the fitted curve at half-maximal effect
# UniProt P16473, sequence (P16473 whole entry, looked up): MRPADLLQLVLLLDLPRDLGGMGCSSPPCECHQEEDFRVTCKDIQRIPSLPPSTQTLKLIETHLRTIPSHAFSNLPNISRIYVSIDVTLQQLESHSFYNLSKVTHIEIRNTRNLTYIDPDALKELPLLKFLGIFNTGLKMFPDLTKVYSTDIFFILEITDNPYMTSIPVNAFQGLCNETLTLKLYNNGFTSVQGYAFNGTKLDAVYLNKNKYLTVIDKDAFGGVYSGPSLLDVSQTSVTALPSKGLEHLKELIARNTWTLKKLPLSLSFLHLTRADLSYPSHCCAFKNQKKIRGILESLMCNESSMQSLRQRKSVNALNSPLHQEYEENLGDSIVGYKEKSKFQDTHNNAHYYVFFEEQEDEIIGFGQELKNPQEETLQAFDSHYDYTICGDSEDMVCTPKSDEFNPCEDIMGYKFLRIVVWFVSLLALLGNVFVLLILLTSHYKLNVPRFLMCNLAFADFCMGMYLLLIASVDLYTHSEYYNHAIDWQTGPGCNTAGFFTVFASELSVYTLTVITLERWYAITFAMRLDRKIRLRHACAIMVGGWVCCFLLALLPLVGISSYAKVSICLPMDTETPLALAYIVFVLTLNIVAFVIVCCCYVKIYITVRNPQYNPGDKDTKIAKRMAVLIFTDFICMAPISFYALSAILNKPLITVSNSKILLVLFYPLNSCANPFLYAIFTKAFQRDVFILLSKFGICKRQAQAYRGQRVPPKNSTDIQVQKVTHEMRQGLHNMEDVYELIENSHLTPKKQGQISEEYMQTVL
# In short: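 Antagonist mode: compound-treated TSHR-expressing HEK293 cells were stimulated with 1.5 ng/mL TSH (final) in presence of Ro20-1724 for 30 min at RT. HTRF cAMP detection after 1 h; each compound tested at 15 concentrations, triplicate.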
# [9] = qHTS assay to identify small molecule agonists of the estrogen receptor alpha (ER-alpha) signaling pathway in the presence of an antagonist - cell viability counter screen (AID 1259386; active = well fitted curve in the direction sought with a large enough effect in the repeat runs; inconclusive = weak or mixed curves; inactive = no such curve, though single readings can be large; an effect the other way counts as inactive or inconclusive;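 also: potency is read from the fitted curve at half-maximal effect; cells exposed to compounds for 22 h at 37 °C before the viability read; nearly all actives have a fitted effect of over 30% in size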)
# In short: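 The test measures whether compounds kill ER-alpha reporter cells (VM7Luc4E2) under antagonist co-treatment (ICI-182,780, 10.0nM). Fluorescence from CellTiter-Fluor is read after a 22hr exposure.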
# [10] = qHTS assay to identify small molecule antagonists of the progesterone receptor (PR) signaling pathway - cell viability counter screen (AID 1346798; active = well fitted curve in the direction sought with a large enough effect in the repeat runs; inconclusive = weak or mixed curves; inactive = no such curve, though single readings can be large; an effect the other way counts as inactive or inconclusive; also: potency is read from the fitted curve at half-maximal effect; nearly all actives have a fitted effect of over 50% in size)
# In short: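 Same-well multiplex: after 16 hr at 37C with compound and R5020 stimulation, HEK293T cells carrying a UAS-bla reporter received LiveBLAzer substrate (2 hr RT), then CellTiter-Glo (30 min RT) for luminescent viability.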
# [11] = qHTS assay to identify small molecule agonists of the TGF-beta/Smad signaling pathway (AID 1346859; active = well fitted activation curve with a large enough effect in the signal ratio in the repeat runs, not every such curve was filed as active; inconclusive = weak or mixed curves; the % refers to the signal ratio; also: potency is read from the fitted curve at half-maximal effect); conditions: SBE-bla HEK293T, TGF-beta/Smad beta-lactamase reporter, 5 h; activation: at 76.8 µM (top of the series)
# In short: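 Smad-responsive beta-lactamase reporter cells (HEK 293T) received compounds from DMSO stocks after overnight attachment, were incubated 5 hr, then treated 2 hr with FRET substrate before dual-emission fluorescence measurement (405 nm excitation).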
# [12] = qHTS assay to identify small molecule antagonists of the estrogen receptor beta (ER-beta) signaling pathway - cell viability counter screen (AID 1259382; active = well fitted curve in the direction sought with a large enough effect in the repeat runs; inconclusive = weak or mixed curves; inactive = no such curve, though single readings can be large; an effect the other way counts as inactive or inconclusive; also: potency is read from the fitted curve at half-maximal effect; nearly all actives have a fitted effect of over 55% in size)
# In short: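 Readout: luminescence, CellTiter-Glo, same wells as bla assay. System: ER-beta-UAS-bla GripTite HEK293T, 2% charcoal-stripped FBS. Exposure: compounds plus 1nM 17-beta-estradiol, 16 hr, 37C.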
# [13] = qHTS assay to identify small molecule agonists of the progesterone receptor (PR) signaling pathway - cell viability counter screen (AID 1346799); also: potency is read from the fitted curve at half-maximal effect; nearly all actives have a fitted effect of over 45% in size
# In short: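 Counter screen for cytotoxicity: compound-treated PR-UAS-bla HEK293T cells (16 hr, 37C, 5% CO2) were assayed with CellTiter-Glo, luminescence measured after 30 min at room temperature.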
# Tags tell the direction and shape of the fitted curve or compound fluorescence and quenching.
smiles,measurement,setting,value
Nc1cnn([C@@H]2O[C@H](CO)[C@@H](O)[C@H]2O)c(=O)n1,Potency,[1],inactive
same,Potency,[2],active: 27.3 µM
same,Potency,[3],active: 19.4 µM
Oc1ccc(/C=C/c2cc(O)cc(O)c2)cc1,Potency,[1],"active: 9.78 µM and active: 17.2 µM and inconclusive: 16.8 µM [inhibitor, partial curve]"
same,Potency,[4],"inconclusive: 69.2 µM [cytotoxic, single point] and inconclusive: 61.1 µM [cytotoxic, partial curve]"
same,Potency,[5],"inconclusive: 6.86 µM [cytotoxic, single point]"
same,Potency,[6],active: 4.37 µM and active: 8.63 µM and active: 13.3 µM
same,cAMP activity change,[7],inconclusive: -3.04%
same,Potency,[8],"inconclusive: 61.7 µM [falling, partial curve]"
same,Potency,[9],"inconclusive: 34.7 µM [cytotoxic, partial curve, poor fit] and inconclusive: 34.4 µM [cytotoxic, partial curve]"
same,Potency,[10],"inconclusive: 69.2 µM [rising, single point] and inconclusive: 48.6 µM [rising, single point]"
same,Potency,[11],"inconclusive: 10.7 µM [rising, partial curve, poor fit]"
COCCOCCOCCOCCOC,Potency,[1],inactive
same,Potency,[4],inactive
same,Potency,[5],"inconclusive: 0.153 µM [rising, partial curve, poor fit]"
same,Potency,[12],"inconclusive: 30.6 µM [cytotoxic, partial curve, poor fit]"
same,Potency,[3],"inconclusive: 30.6 µM [rising, partial curve]"
same,Potency,[10],active: 21.7 µM
same,Potency,[13],active: 21.7 µM
CC(=O)c1ccc(C)cc1,Potency,[1],"inconclusive: 6.11 µM [inhibitor, single point]"
same,Potency,[4],inactive
COC(=O)N[C@H](C(=O)N[C@@H](Cc1ccccc1)[C@@H](O)CN(Cc1ccc(-c2ccccn2)cc1)NC(=O)[C@@H](NC(=O)OC)C(C)(C)C)C(C)(C)C,Potency,[1],"inconclusive: 2.98 µM [inhibitor, single point]"
same,Potency,[2],inactive
same,Potency,[3],inactive
same,Potency,[13],"inconclusive: 33.5 µM [rising, single point]"
CCCCCCCCCC#N,Potency,[1],active: 24.2 µM
same,"activity, negative = inhibition",[2],inconclusive: 23.1%
same,"activity change, negative = inhibition",[3],inconclusive: -32%
same,Potency,[10],"inconclusive: 68.2 µM [cytotoxic, single point]"
same,Potency,[13],"inconclusive: 76.6 µM [cytotoxic, single point]"
CCCCCCCCCCO,Potency,[1],"inconclusive: 6.87 µM [inhibitor, single point]"
same,"activity, negative = inhibition",[2],inconclusive: 26.4% and inconclusive: 5.86%
same,Potency,[8],inactive
same,Potency,[13],"inconclusive: 2.74 µM [cytotoxic, single point]"
COc1ccc(S(=O)(=O)Nc2nnc(CC(C)C)s2)cc1,Potency,[1],inactive
same,Potency,[2],inactive
same,Potency,[3],inactive
same,Potency,[10],"inconclusive: 3.35 µM [cytotoxic, single point]"
F[B-](F)(F)F,Potency,[1],inactive
same,Potency,[4],"inconclusive: 43.9 µM [cytotoxic, partial curve]"
same,Potency,[5],inactive and active: 62 µM
same,Potency,[7],inactive
same,Potency,[9],"inconclusive: 69.6 µM [cytotoxic, single point]"
same,"activity change, negative = inhibition",[3],inconclusive: -33.2%
COc1ccc(Nc2ccccc2)c(C)c1,Potency,[1],"inconclusive: 48.6 µM [inhibitor, partial curve, poor fit]"
same,Potency,[4],inactive
same,Potency,[5],"inconclusive: 68.6 µM [cytotoxic, single point]"
same,Potency,[3],"inconclusive: 54.5 µM [rising, partial curve]"
same,Potency,[13],"inconclusive: 0.61 µM [cytotoxic, single point]"
NC(N)=N/N=C/c1c(Cl)cccc1Cl,Potency,[1],"inconclusive: 3.76 µM [inhibitor, full curve]"
same,Potency,[4],"inconclusive: 33.5 µM [cytotoxic, single point]"
same,Potency,[12],"inconclusive: 26.6 µM [cytotoxic, partial curve, poor fit]"
same,Potency,[9],active: 15 µM
same,Potency,[3],inactive
same,Potency,[10],"inconclusive: 11.9 µM [cytotoxic, partial curve, poor fit]"
same,Potency,[13],"inconclusive: 7.5 µM [cytotoxic, full curve]"
C/C=C/C(=O)CC,Potency,[1],active: 5.9 µM
same,"activity, negative = inhibition",[2],inconclusive: 24.6% [at 19 µM]
same,Potency,[10],"inconclusive: 11.8 µM [cytotoxic, single point]"
